US10299477B2 (priority 2015, dated 2019)

Assays:
Format in all cases: in vivo
[1] = system: Blumeria graminis f sp. hordei; experiment: Test Example D: Powdery mildew on barley; settings: for Test D control value (powdery mildew on barley): preventive, control value class; for Test D (control value class, powdery mildew on barley): in vivo
Description: [Test Example D] Powdery Mildew on Barley
After the sprayed dilutions were dried, conidia of Blumeria graminis f sp. hordei were inoculated to the plants by shaking off.

Puccinia recondita = experiment: Test Example E: Brown rust on wheat; settings: for Test E control value (brown rust on wheat): preventive, control value class; for Test E (control value class, brown rust on wheat): in vivo
Description: [Test Example E] Brown Rust on Wheat

Botrytis cinerea = experiment: Test Example B: Gray mold on tomato; settings: for Test B control value (gray mold on tomato): preventive, control value class; for Test B (control value class, gray mold on tomato): in vivo
Description: [Test Example B] Gray Mold on Tomato
Seeds of a test plant (tomato variety: Oogata Fukuju) were planted followed by cultivating until three to five first leaves (true leaves) appeared.

Alternaia brassicicola = experiment: Test Example C: Alternaria sooty spot on cabbage; settings: for Test C control value (Alternaria sooty spot on cabbage): preventive, control value class; for Test C (control value class, Alternaria sooty spot on cabbage): in vivo; for Test C (control value class): Alternaria sooty spot on cabbage
Description: [Test Example C] Alternaria Sooty Spot on Cabbage
Seeds of a test plant (cabbage variety: Shikidori) were planted followed by cultivating until the cotyledons extended.

Plasmopara viticola = experiment: Test Example G: Downy mildew on vine; settings: for Test G control value (downy mildew on vine): 250 ppm spray (2.5 ml/pot), preventive, control value class; for Test G (control value class, downy mildew on vine): 250 ppm, sprayed 2.5 ml/pot before inoculation; for Test G (control value class): 250 ppm spray
Description: [Test Example G] Downy Mildew on Vine
Seeds of a test plant (grape variety: Neomuscat) were planted followed by cultivating until three to four first leaves appeared. […] After the sprayed dilutions were dried, a zoosporangia suspension (1-2×10^4 zoosporangia/ml) of Plasmopara viticola was inoculated to the plants by spraying.

[2] = evaluated 7-10 days after inoculation
[3] = Powdery mildew on barley, control value=100{1-(n/3)}
[4] = Brown rust on wheat, control value=100{1-(n/3)}
[5] = Gray mold on tomato, control value=100{1-(n/3)}
[6] = Downy mildew on vine, 2.5 ml/pot, evaluated 7-10 days after inoculation
[7] = powdery mildew on barley, 250 ppm spray
[8] = brown rust on wheat, Puccinia recondita, 250 ppm spray
[9] = gray mold on tomato, Botrytis cinerea, 250 ppm spray
[10] = downy mildew on vine, Plasmopara viticola, 7-10 days after inoculation

| Compound | Test D (control value class, powdery mildew on barley) [1] | Test E (control value class, brown rust on wheat) (Puccinia recondita) | Test B (control value class, gray mold on tomato) (Botrytis cinerea) | Test C (control value class, Alternaria sooty spot on cabbage) (Alternaia brassicicola) | Test G (control value class, downy mildew on vine) (Plasmopara viticola; [2]) | Test D (control value class) [1, 7] | Test E (control value class) (Puccinia recondita; [8]) | Test B (control value class) (Botrytis cinerea; [9]) | Test C (control value class) (Alternaia brassicicola; 250 ppm spray) | Test G (control value class) (Plasmopara viticola; [10]) | also measured |
| --- | --- | --- | --- | --- | --- | --- | --- | --- | --- | --- | --- |
| CCOCOc1ccc(Cl)c(-c2ccc(=O)n(C)c2-c2c(F)cccc2F)c1 [Compound 326] | – | – | – | – | – | – | – | – | – | – | Test D control value (powdery mildew on barley) ([1]; 250 ppm spray): H (H shows more than 50% of control values); Test E control value (brown rust on wheat) (Puccinia recondita; 250 ppm spray): H (H shows more than 50% of control values); Test B control value (gray mold on tomato) (Botrytis cinerea; 250 ppm spray): H (H shows more than 50% of control values); Test C control value (Alternaria sooty spot on cabbage) (Alternaia brassicicola; 250 ppm spray): H (H shows more than 50% of control values); Test G control value (downy mildew on vine) (Plasmopara viticola; 7-10 days after inoculation): H (H shows more than 50% of control values) |
| Cc1cc(-c2ccccc2Cl)c(-c2c(F)cc(F)cc2F)n(C)c1=O [Compound 731] | H (H shows more than 50% of control values) | H (H shows more than 50% of control values) | H (H shows more than 50% of control values) | H (H shows more than 50% of control values) | H (H shows more than 50% of control values) | – | – | – | – | – | – |
| Cn1c(-c2c(F)cc(F)cc2F)c(-c2ccccc2)ccc1=O [Compound 777] | – | – | – | – | – | – | – | – | – | – | Test D (control value class) [1, 3]: H (H shows more than 50% of control values); Test E (control value class) (Puccinia recondita; [4]): H (H shows more than 50% of control values); Test B (control value class) (Botrytis cinerea; [5]): H (H shows more than 50% of control values); Test C (control value class) (Alternaia brassicicola; control value=100{1-(n/3)}): H (H shows more than 50% of control values); Test G (control value class) (Plasmopara viticola; [6]): H (H shows more than 50% of control values) |
| CCn1c(-c2c(F)cc(OC)cc2F)c(-c2cc(OC)cc(F)c2Cl)ccc1=O [Compound 623] | H (H shows more than 50% of control values) | H (H shows more than 50% of control values) | H (H shows more than 50% of control values) | H (H shows more than 50% of control values) | L (L shows 50% or less of control values) | – | – | – | – | – | – |
| CCOc1cc(F)c(-c2c(-c3cc(F)ccc3Cl)cc(Cl)c(=O)n2CC)c(F)c1 [Compound 547] | – | – | – | – | – | H (H shows more than 50% of control values) | H (H shows more than 50% of control values) | H (H shows more than 50% of control values) | H (H shows more than 50% of control values) | L (L shows 50% or less of control values) | – |
| CCn1c(-c2c(F)cc(F)cc2F)c(-c2ccc(F)cc2Cl)cc(Cl)c1=O [Compound 577] | H (H shows more than 50% of control values) | H (H shows more than 50% of control values) | H (H shows more than 50% of control values) | H (H shows more than 50% of control values) | L (L shows 50% or less of control values) | – | – | – | – | – | – |
| CCn1c(-c2c(F)cccc2F)c(-c2cc(OCCC#N)ccc2Cl)ccc1=O [Compound 250] | – | – | – | – | – | – | – | – | – | – | Test D control value (powdery mildew on barley) ([1]; 250 ppm spray): L (L shows 50% or less of control values); Test E control value (brown rust on wheat) (Puccinia recondita; 250 ppm spray): H (H shows more than 50% of control values); Test B control value (gray mold on tomato) (Botrytis cinerea; 250 ppm spray): H (H shows more than 50% of control values); Test C control value (Alternaria sooty spot on cabbage) (Alternaia brassicicola; 250 ppm spray): H (H shows more than 50% of control values); Test G control value (downy mildew on vine) (Plasmopara viticola; 7-10 days after inoculation): H (H shows more than 50% of control values) |
| CCn1c(-c2c(F)cccc2F)c(-c2cccc(C#N)c2)cc(Cl)c1=O [Compound 353] | – | – | – | – | – | – | – | – | – | – | Test D control value (powdery mildew on barley) ([1]; 250 ppm spray): L (L shows 50% or less of control values); Test E control value (brown rust on wheat) (Puccinia recondita; 250 ppm spray): L (L shows 50% or less of control values); Test B control value (gray mold on tomato) (Botrytis cinerea; 250 ppm spray): H (H shows more than 50% of control values); Test C control value (Alternaria sooty spot on cabbage) (Alternaia brassicicola; 250 ppm spray): L (L shows 50% or less of control values); Test G control value (downy mildew on vine) (Plasmopara viticola; 7-10 days after inoculation): L (L shows 50% or less of control values) |
| Cn1c(-c2c(F)cc(F)cc2F)c(-c2ccccc2)cc(Cl)c1=O [Compound 779] | – | – | – | – | – | – | – | – | – | – | Test D (control value class) [1, 3]: H (H shows more than 50% of control values); Test E (control value class) (Puccinia recondita; [4]): H (H shows more than 50% of control values); Test B (control value class) (Botrytis cinerea; [5]): H (H shows more than 50% of control values); Test C (control value class) (Alternaia brassicicola; control value=100{1-(n/3)}): H (H shows more than 50% of control values); Test G (control value class) (Plasmopara viticola; [6]): H (H shows more than 50% of control values) |
| C#CCn1c(-c2c(F)cccc2F)c(-c2cc(OC)ccc2Cl)cc(Cl)c1=O [Compound 462] | – | – | – | – | – | H (H shows more than 50% of control values) | H (H shows more than 50% of control values) | H (H shows more than 50% of control values) | H (H shows more than 50% of control values) | H (H shows more than 50% of control values) | – |
| Cn1c(-c2c(F)cc(F)cc2F)c(-c2cccc(F)c2F)cc(Cl)c1=O [Compound 559] | – | – | – | – | – | H (H shows more than 50% of control values) | H (H shows more than 50% of control values) | H (H shows more than 50% of control values) | H (H shows more than 50% of control values) | L (L shows 50% or less of control values) | – |
| COc1ccc(Cl)c(-c2cc(Br)c(=O)n(C)c2-c2c(F)cc(F)cc2F)c1 [Compound 725] | H (H shows more than 50% of control values) | H (H shows more than 50% of control values) | H (H shows more than 50% of control values) | H (H shows more than 50% of control values) | L (L shows 50% or less of control values) | – | – | – | – | – | – |
| Cc1cc(-c2ccccc2F)c(-c2c(F)cc(F)cc2F)n(C)c1=O [Compound 571] | H (H shows more than 50% of control values) | H (H shows more than 50% of control values) | H (H shows more than 50% of control values) | H (H shows more than 50% of control values) | H (H shows more than 50% of control values) | – | – | – | – | – | – |
| CCn1c(-c2c(F)cc(OC)cc2F)c(-c2ccc(F)cc2Cl)cc(Cl)c1=O [Compound 593] | H (H shows more than 50% of control values) | H (H shows more than 50% of control values) | H (H shows more than 50% of control values) | H (H shows more than 50% of control values) | H (H shows more than 50% of control values) | – | – | – | – | – | – |
| CCCn1c(-c2c(F)cccc2F)c(-c2cc(OC)ccc2Cl)cc(Cl)c1=O [Compound 400] | – | – | – | – | – | H (H shows more than 50% of control values) | H (H shows more than 50% of control values) | H (H shows more than 50% of control values) | H (H shows more than 50% of control values) | H (H shows more than 50% of control values) | – |
| Cn1c(-c2c(F)cc(F)cc2F)c(-c2cccc(F)c2Cl)cc(Cl)c1=O [Compound 500] | – | – | – | – | – | H (H shows more than 50% of control values) | H (H shows more than 50% of control values) | H (H shows more than 50% of control values) | H (H shows more than 50% of control values) | H (H shows more than 50% of control values) | – |
